About 18,000 (5.8%) of roughly 310,000 compounds were called active. The shares of active, inactive and inconclusive entries below differ from those in the screen. Calls come from the whole dose curve; as a rule, active = well fitted inhibition curve with a large enough effect; inconclusive = small, poorly fitted or top-dose-only effect, or another doubt; inactive = no such curve, though single readings can be large or run the other way. No potency is given beside an inconclusive call; the fits are too rough.
Test: Primary qHTS for delayed death inhibitors of the malarial parasite plastid, 48 hour incubation
Details: P. falciparum luciferase growth in erythrocytes; series mostly up to 28.7 µM
Summary of the method: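 Growth was read as firefly luciferase luminescence after a 48 h, 37 C, 5% CO2 exposure of compounds to reporter-bearing P. falciparum cultures (0.1% parasitemia, 2% hematocrit final) in Albumax-supplemented RPMI 1640.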
Potency is the fitted concentration of half-maximal effect; tags give direction and shape of the fitted curve.

SMILES	Potency
O=Cc1ccc(OC(=O)/C=C/c2ccccc2)cc1	inconclusive [inhibitor, single point]
Cc1ccc(S(=O)(=O)NC(CC(=O)O)c2ccc(F)cc2)cc1 (stereo not given)	inconclusive [inhibitor, partial curve, poor fit]
CCOc1cc2[nH]c(=O)n(CCCCC(=O)N3CCCCCC3)c(=O)c2cc1OCC	active: 5.22 µM
CC1CCCN(c2ccc(/C=C(\C#N)c3nn(-c4ccccc4)c(N)c3C#N)cc2[N+](=O)[O-])C1 (stereo not given)	inconclusive [inhibitor, single point]
CCc1ccc(C(=O)Nc2ccc(OC)c(S(=O)(=O)N3CCCCC3)c2)cc1	inconclusive [inhibitor, partial curve, poor fit]
Cc1cccc(NC(=O)CSCC(=O)Nc2cc(S(=O)(=O)N3CCOCC3)ccc2N2CCCC2)c1	inconclusive [inhibitor, partial curve]
C=CCN1C(=O)C(CC(=O)O)SC1=Nc1ccc(C(=O)O)cc1 (stereo not given)	inactive
O=C(CCC(=O)NNC(=O)Nc1ccc(Cl)cc1)NCc1ccccc1	inactive
O=C(NN1C(=O)C2C3C=CC([C@@H]2C1=O)C31CC1)c1ccccc1 (stereo not given in full)	inactive
COC(=O)C1=C(C)NC(C)=C(C(=O)OC)C1c1ccc(OC(=O)c2ccco2)cc1	inconclusive [inhibitor, single point]
CCOC(=O)C1CCN(C(=O)Cn2nc(C)n3c(cc4cc(F)ccc43)c2=O)CC1	inactive
O=C(CCNc1n[nH]c(=O)[nH]c1=O)N1CCCCC1	inactive
CC1CN(S(=O)(=O)c2cc(C(=O)N(CCc3ccccc3)Cc3ccccc3)ccc2Cl)CC(C)O1 (stereo not given)	active: 5.22 µM
CCNc1nc(OCCNC(C)=O)nc(N(C)C)n1	inactive
CCOc1ccc(NC(=O)C2CCN(S(=O)(=O)c3ccc4c(c3)C(C)(C)C(=O)N4C)CC2)cc1	inactive
CCOc1ccc(C2CC(c3cccc(OC)c3OC)n3nnnc3N2)cc1Cl (stereo not given)	active: 11.7 µM
Cc1[nH]n(C(N)=S)c(=O)c1N=Nc1ccccc1C(F)(F)F	inactive
O=C(O)c1cccnc1SCc1cccc(Br)c1	active: 1.65 µM
CCOC(=O)c1c(-c2ccc(F)cc2)csc1NC(=O)c1c(-c2ccccc2)noc1C	inconclusive [inhibitor, single point]
COc1ccccc1N1CCN(c2ncnc3c2oc2ccccc23)CC1	inconclusive [inhibitor, single point]
CCC(C)[C@H]1CNCCN1CC1(c2ccccc2)CC1 (stereo not given in full)	inconclusive [inhibitor, single point]
CC1Cc2cc(S(=O)(=O)N3CCC(C(=O)Nc4ccccn4)CC3)ccc2N1C(=O)C1CCC1 (stereo not given)	inconclusive [inhibitor, single point]
C#CCn1c(=NC(=O)c2ccc(S(=O)(=O)N3CCc4ccccc4C3)cc2)sc2cc(S(N)(=O)=O)ccc21	inconclusive [inhibitor, single point]

SMILES	Potency
Cc1ccc(C)c(S(=O)(=O)N2CCN(C(=O)Cc3ccccc3)CC2)c1	inconclusive [inhibitor, partial curve]
O=[As]O[As]=O (stereo not given)	active: 1.9 µM
CSc1ncc(CN2CCc3c([nH]c4ccccc34)C2C(C)(C)C)cn1 (stereo not given)	inconclusive [inhibitor, single point]
COc1ccc(N2CCN(C(=O)c3ccc(N(C)S(=O)(=O)c4ccc(OC)cc4)cc3)CC2)cc1	inconclusive [inhibitor, partial curve, poor fit]
Cc1ccc(C(=O)O)cc1NC(=S)NCCc1ccccc1	inactive
Cc1csc(NC(=O)CCC(=O)c2cccs2)n1	inconclusive [inhibitor, single point]
Cc1ccc(NC(=S)NCc2ccc(F)cc2)c(C)c1	inconclusive [inhibitor, single point]
CC(=O)c1cccc(NC(=O)Cc2cccs2)c1	inconclusive [inhibitor, full curve, poor fit]
O=C(Nc1nc(-c2ccncc2)cs1)c1ccc(S(=O)(=O)N2CCOCC2)cc1	inconclusive [inhibitor, full curve, poor fit]
Cc1nc2ccc(NS(=O)(=O)c3ccc(F)c(F)c3)cc2s1	inactive
O=C(O)CCN=CC1=C(O)CC(c2ccccc2)CC1=O (stereo not given)	inactive
Cc1[nH]c(C)c(C(=O)/C=C/c2ccc([N+](=O)[O-])cc2)c1C	inconclusive [inhibitor, single point]
COc1cc(/C=C/c2[nH]c(=O)[nH]c(=O)c2[N+](=O)[O-])cc(OC)c1O	inactive
Cc1cc(O)c(-c2cc(C(=O)NCCc3ccc(S(N)(=O)=O)cc3)[nH]n2)cc1C	inconclusive [inhibitor, single point]
CCN(CCCNC(=O)c1ccc2c(c1)NC(=O)CN2C)c1cccc(C)c1	inconclusive [inhibitor, partial curve]
O=C(N/N=C/c1ccc(O)cc1O)NC12CC3CC(CC(C3)C1)C2	inconclusive [inhibitor, single point]
O=C(Nc1cccnc1)c1cc(-c2cccnc2)nc2ccc(Br)cc12	active: 1.17 µM
Cc1c(Cl)ccc2c(C(=O)O)cc(-c3ccccc3)nc12	inconclusive [inhibitor, full curve, poor fit]
CCCCCN(C(=O)CCC(=O)OCC(=O)NC1CCC(C)CC1)c1c(N)n(CCCC)c(=O)[nH]c1=O (stereo not given)	inconclusive [inhibitor, single point]
CN(CC(=O)Nc1ccc(Cl)c(C(F)(F)F)c1)C(=O)c1cc(=O)c2ccccc2o1	inconclusive [inhibitor, single point]
Cc1ccc(C(=O)OCC(=O)c2ccc[nH]2)s1	inactive
NC(=O)c1ccccc1OCc1nc2ccccc2s1	inactive

Reference: PubChem BioAssay AID504832 (National Center for Advancing Translational Sciences (NCATS), 2011)
